Source: PubChem BioAssay AID1347165 (National Center for Advancing Translational Sciences (NCATS), 2019)
The whole screen tested about 220,000 compounds, of which about 5,700 (2.6%) were called active. The inconclusive results got no clear call from the source; some entries with a clear call stand among them for comparison. Calls come from the whole dose curve; as a rule, active = well fitted inhibition curve with a large enough effect; inconclusive = small, poorly fitted or top-dose-only effect; inactive = no such curve, though single readings can be large or run the other way. Where the call is inconclusive, the potency comes from a doubtful curve fit.

biological target: Lysine-specific demethylase 5B (Homo sapiens) (UniProt Q9UGL1); test: Primary screen for KDM5B Histone Demethylases FDH-coupled qHTS; conditions: FDH-coupled NADH fluorescence (FDH is formaldehyde dehydrogenase); activity change, negative = inhibition: at 57.7 µM (top of the series) unless noted; note: nearly all actives have a fitted effect of over 70% in size; for activity change, negative = inhibition: 0% is about no effect
How it was run: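 Inhibition is measured as reduced NADH fluorescence generation from FDH coupling to formaldehyde release. Truncated KDM5BΔAP at 200 nM final acts on H3K4me3 peptide (12.5 µM in substrate mix) in pH 7.5 HEPES buffer with Tween-20, 30 min, room temperature.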
Potency is the fitted concentration of half-maximal effect; tags give direction and shape of the fitted curve.

Chain of UniProt Q9UGL1 (Q9UGL1 whole entry, looked up, the tested form may be a part): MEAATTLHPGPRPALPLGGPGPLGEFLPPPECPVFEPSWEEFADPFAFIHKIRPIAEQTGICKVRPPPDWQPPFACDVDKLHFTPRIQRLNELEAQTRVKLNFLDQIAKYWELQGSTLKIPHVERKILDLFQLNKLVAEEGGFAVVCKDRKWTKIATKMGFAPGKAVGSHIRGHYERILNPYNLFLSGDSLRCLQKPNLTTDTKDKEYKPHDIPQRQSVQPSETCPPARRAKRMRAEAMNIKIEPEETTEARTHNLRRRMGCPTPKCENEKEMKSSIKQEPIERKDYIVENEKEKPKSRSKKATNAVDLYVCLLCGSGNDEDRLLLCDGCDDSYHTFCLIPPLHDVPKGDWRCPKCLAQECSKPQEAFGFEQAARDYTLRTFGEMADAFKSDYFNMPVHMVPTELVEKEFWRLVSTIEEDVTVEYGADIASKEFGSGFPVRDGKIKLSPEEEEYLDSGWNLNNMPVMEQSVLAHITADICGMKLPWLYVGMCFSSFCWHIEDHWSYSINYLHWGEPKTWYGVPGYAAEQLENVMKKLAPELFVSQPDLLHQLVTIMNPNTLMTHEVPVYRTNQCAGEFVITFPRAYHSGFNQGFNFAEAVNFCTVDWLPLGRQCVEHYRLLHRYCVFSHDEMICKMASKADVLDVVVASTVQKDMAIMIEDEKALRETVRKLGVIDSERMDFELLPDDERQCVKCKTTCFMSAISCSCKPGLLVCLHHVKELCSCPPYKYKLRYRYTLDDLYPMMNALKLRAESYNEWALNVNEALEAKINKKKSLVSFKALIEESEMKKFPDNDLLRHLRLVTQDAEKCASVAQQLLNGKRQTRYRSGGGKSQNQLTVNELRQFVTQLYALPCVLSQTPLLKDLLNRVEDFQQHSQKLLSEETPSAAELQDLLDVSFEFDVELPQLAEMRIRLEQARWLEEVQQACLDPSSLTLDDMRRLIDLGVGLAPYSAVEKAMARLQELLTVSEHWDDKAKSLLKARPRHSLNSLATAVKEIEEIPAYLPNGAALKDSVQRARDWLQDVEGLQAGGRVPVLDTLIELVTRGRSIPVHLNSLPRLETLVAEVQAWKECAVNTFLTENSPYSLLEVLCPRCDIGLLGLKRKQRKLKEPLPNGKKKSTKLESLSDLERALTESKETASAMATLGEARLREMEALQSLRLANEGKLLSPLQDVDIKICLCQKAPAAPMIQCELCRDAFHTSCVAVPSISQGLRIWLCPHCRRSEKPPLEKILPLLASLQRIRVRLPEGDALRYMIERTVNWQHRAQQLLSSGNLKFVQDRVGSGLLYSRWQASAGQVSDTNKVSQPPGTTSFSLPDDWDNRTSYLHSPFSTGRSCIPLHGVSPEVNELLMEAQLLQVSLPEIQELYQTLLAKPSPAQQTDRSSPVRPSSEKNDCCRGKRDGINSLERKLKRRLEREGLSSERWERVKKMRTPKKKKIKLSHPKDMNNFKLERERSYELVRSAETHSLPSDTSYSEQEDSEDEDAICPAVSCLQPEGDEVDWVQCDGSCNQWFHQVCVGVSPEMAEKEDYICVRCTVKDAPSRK

Row | SMILES | Potency | activity change, negative = inhibition
1 | COc1cccc(OCCN(C)Cc2cn(-c3ccccc3)nn2)c1 | inactive | –
2 | COCC[C@]1(O)CCN(C(=O)Nc2ccc(F)c(C(F)(F)F)c2)C[C@H]1C | inactive | –
3 | O=C(CC1CCCC1)N1CCCC(Nc2cccc(F)c2)C1 (stereo not given) | inconclusive: 25.1 µM [inhibitor, partial curve, poor fit] | –
4 | Cc1cc2cc(NC(=O)c3cccc(C#N)c3)ccc2[nH]1 | inactive | –
5 | CCOC(=O)N1CCC(Nc2c([N+](=O)[O-])cc(C(=O)O)cc2[N+](=O)[O-])CC1 | inconclusive: 28.2 µM [inhibitor, partial curve, poor fit] | –
6 | O=C(NCc1ccc2c(c1)CCN2C(=O)c1ccccc1)Nc1cccc(C(F)(F)F)c1 | – | inconclusive: -31.2% [inhibitor]
7 | CS(=O)(=O)N1CC[C@H](c2nc3cc(Cl)ccc3o2)C1 | inconclusive: 39.8 µM [inhibitor, single point] | –
8 | CCN1CCCC1CNC(=O)c1cc2c(OC)c(OC)c(OC)cc2[nH]1 (stereo not given) | inconclusive: 39.8 µM [inhibitor, single point] | –
9 | Nc1nc2c(s1)C(c1cccc(OCc3cccc(F)c3)c1)CC(=O)N2 (stereo not given) | inconclusive: 39.8 µM [inhibitor, single point] | –
10 | CCOc1ccc(NC(=O)COc2ccc(C)c(C)c2)c2cccnc12 | inconclusive: 39.8 µM [inhibitor, single point] | –
11 | COCCNC(=O)c1nn(-c2ccc(C)cc2)c(=O)c2c1c1ccccc1n2C | inactive | –
12 | c1ccc(CC2CNC2)cc1 | inactive | –
13 | COc1cccc(SC(C)C(=O)NC(C)(C)C)c1 (stereo not given) | inconclusive: 5.01 µM [inhibitor, full curve, poor fit] | –
14 | CNC(=O)c1cn2c(n1)CN(C(=O)c1cccnc1)CC2 | inactive | –
15 | Cc1nc(C)c(C(=O)O)cc1C(=O)O | inactive | –
16 | Cc1ccc(CCNC(=O)C2CCCN(c3nnc(C)c4c(C)n(-c5ccccc5)nc34)C2)cc1 (stereo not given) | inconclusive: 5.01 µM [inhibitor, partial curve, poor fit] | –
17 | Cn1cccc1CNC(=O)C1c2ccccc2C(=O)N(C2CCCCC2)C12CCCC2 (stereo not given) | inactive | –
18 | O=[N+]([O-])c1ccc(Oc2cccc(C(F)(F)F)c2)c2ccncc12 | inactive | –
19 | COc1ccc(-c2nc3sc(CCNC(=O)C(=O)Nc4cccc(NC(C)=O)c4)c(C)n3n2)cc1 | inconclusive: 39.8 µM [inhibitor, single point] | –
20 | Cn1ccnc1C(NC(=O)c1nn(C)c(=O)c2ccccc12)c1cccc(F)c1 (stereo not given) | inconclusive: 22.4 µM [inhibitor, partial curve, poor fit] | –

Row | SMILES | Potency | activity change, negative = inhibition
21 | Cc1c(-c2cc(C(F)F)c3c(C4CC4)nn(C)c3n2)cnn1C | inconclusive: 22.4 µM [inhibitor, partial curve, poor fit] | –
22 | Nc1nn(-c2ccccc2)nc1C(=O)OCc1ccc(Cl)cc1 | inconclusive: 35.5 µM [inhibitor, partial curve, poor fit] | –
23 | Cc1cccn2c(=O)c3cc(C(=O)N4CCC(C)CC4)sc3nc12 | inconclusive: 2 µM [inhibitor, full curve, poor fit] | –
24 | COc1c(C)cccc1C(=O)Nc1ccc(-c2nc3ccccc3s2)c(Cl)c1 | inconclusive: 1.78 µM [inhibitor, partial curve, poor fit] | –
25 | O=C(NC[C@H]1O[C@@H](CO)[C@@H](O)[C@H]1N1CCN(c2ccc(F)cc2)CC1)c1ccc(F)c(Cl)c1 | inconclusive: 17.8 µM [inhibitor, single point] | –
26 | CC(NC(=O)c1ccc(-c2ccccc2Cl)o1)c1ncnn1C (stereo not given) | inconclusive: 31.6 µM [inhibitor, partial curve, poor fit] | –
27 | Cc1c(C(=O)NCc2cccc(Br)c2)oc2ccc3c(c12)C(=O)CC(C)(C)O3 | inconclusive: 25.1 µM [inhibitor, partial curve, poor fit] | –
28 | O=C(c1ccc(Cl)cc1)N1CCC(n2cc(-c3ccccc3)[nH]c2=O)CC1 | inconclusive: 50.1 µM [inhibitor, partial curve, poor fit] | –
29 | CCN(CC)CCCNC(=O)c1ccc(Cn2c(SCc3ccccc3)nc3cccnc32)cc1 | inconclusive: 15.8 µM [inhibitor, partial curve, poor fit] | –
30 | O=C(c1cc2c(s1)CCC(C(=O)N1CCN(C3CCCCC3)CC1)C2)N1CCCC1 (stereo not given) | inconclusive: 12.6 µM [inhibitor, partial curve] | –
31 | O=C(NCc1cccc(Cl)c1)c1noc(-c2ccc3c(c2)OCO3)n1 | active: 28.2 µM | –
32 | CC1CCCN(S(=O)(=O)c2cccc3nonc23)C1 (stereo not given) | inconclusive: 28.2 µM [inhibitor, partial curve, poor fit] | –
33 | COc1ccc(CN[C@H]2[C@H](O)[C@@H](N(C)CCc3ccccn3)[C@@H]3OC[C@H]2O3)cc1 | inconclusive: 31.6 µM [inhibitor, partial curve, poor fit] | –
34 | COc1cccc(Nc2ccc3c(n2)C(C)(C(=O)NC2CCC(O)CC2)CN(C)C3)c1 (stereo not given) | inconclusive: 39.8 µM [inhibitor, single point] | –
35 | Cc1noc2c(Nc3ccc(C(N)=O)cc3)cc(-c3ccsc3)nc12 | inconclusive: 35.5 µM [inhibitor, single point] | –
36 | O=[N+]([O-])c1ccc2c(c1)N([O-])C1(CCCCC1)[N+]2=O | inconclusive: 11.2 µM [inhibitor, partial curve, poor fit] | –
37 | COc1ccc(-c2cnnn2-c2ccc(NC(=O)c3ccccc3OC)cc2)cc1 | inconclusive: 15.8 µM [inhibitor, partial curve, poor fit] | –
38 | Cc1c(C(=O)NCc2cccc(Cl)c2)sc2nc3n(c(=O)c12)CCCC3 | inconclusive: 28.2 µM [inhibitor, single point] | –
39 | Cc1cc(=O)oc2cc(NC(=O)CC3(CC(=O)O)CCCC3)ccc12 | inconclusive: 28.2 µM [inhibitor, partial curve, poor fit] | –
40 | CCCc1ccc(OCc2ccc(C(=O)Nc3ccccc3C(=O)OC)o2)cc1 | inconclusive: 25.1 µM [inhibitor, partial curve, poor fit] | –
